Source: the supplement of paper PMC9446081
In all, about 39,000 compounds went through this assay and about 220 (0.56%) showed activity. The list shows a part of the results.

The molecules below were run on Escherichia coli K-12 BW25113 (assay: relative growth (OD600 normalised to plate interquartile mean) (fraction); higher = less growth inhibition, active = 0.2 or less). Conditions: 50 µM; LB; incubation time: overnight (16-24 h).
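Note: static incubation at 37 °C against the wild-type strain, values averaged over two biological replicates.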

| Compound | relative growth |
| --- | --- |
| C[C@@H]1CCCCO[C@H](CN(C)C(=O)Nc2cccc3ccccc23)[C@H](C)CN([C@@H](C)CO)C(=O)c2cc(NC(=O)NC3CCCCC3)ccc2O1 | inactive: 1.03 |
| O=C(C[C@H]1CC[C@H]2[C@@H](COC[C@@H](O)CN2S(=O)(=O)c2ccccc2)O1)NCc1ccc2c(c1)OCO2 | inactive: 0.998 |
| CC(=O)N1CCCN(S(=O)(=O)c2cn(C)c(=O)n(C)c2=O)CC1 | inactive: 1.01 |
| C[C@@H]1CN([C@@H](C)CO)C(=O)Cc2cc(NS(=O)(=O)c3ccc(F)cc3)ccc2O[C@@H]1CN(C)S(=O)(=O)c1cccs1 | inactive: 0.987 |
| C[C@H](CO)N1C[C@H](C)[C@H](CN(C)C(=O)Nc2ccc(C(F)(F)F)cc2)Oc2ccc(NC(=O)NC3CCCCC3)cc2C1=O | inactive: 1 |
| C[C@H]1CN([C@@H](C)CO)C(=O)c2cccc(NS(=O)(=O)c3ccc(Cl)cc3)c2O[C@@H]1CN(C)Cc1ccc(-c2ccccc2)cc1 | inactive: 0.998 |
| C[C@H]1CN([C@@H](C)CO)S(=O)(=O)c2ccc(Br)cc2O[C@H]1CN(C)C(=O)Cc1ccncc1 | inactive: 1.01 |
| COc1ccc(NC(=O)Nc2ccc3c(c2)C(=O)N([C@@H](C)CO)C[C@@H](C)[C@@H](CN(C)C(=O)Cc2ccccc2)OCCCC[C@@H](C)O3)cc1 | inactive: 0.984 |
| Cc1noc(C)c1S(=O)(=O)Nc1ccc2c(c1)C(=O)N([C@@H](C)CO)C[C@@H](C)[C@@H](CN(C)Cc1ccc(Oc3ccccc3)cc1)O2 | inactive: 0.987 |
| CC(C)CS(=O)(=O)C1CNC1 | inactive: 1.01 |
| Cn1c(=O)c2c(nc(Cl)n2CCN2C(=O)CNC2=O)n(C)c1=O | inactive: 0.863 |
| C[C@H]1CN([C@@H](C)CO)C(=O)c2cc(NS(=O)(=O)c3cn(C)cn3)ccc2O[C@@H]1CN(C)S(C)(=O)=O | inactive: 0.971 |
| C=CCNC(=O)[C@@H]1[C@H]2C(=O)O[C@H](c3ccccc3)[C@H](c3ccccc3)N2[C@H](c2ccc(O)cc2)[C@@]12C(=O)N(C(=O)OCCOC)c1ccc(C#Cc3ccc(OC)cc3)cc12 | inactive: 1.06 |
| CC(=O)N[C@H]1[C@H]([C@H](O)[C@H](O)CO)O[C@](O)(C(=O)O)C[C@@H]1O | inactive: 1 |
| CC#CCn1c(N2CCC[C@@H](N)C2)nc2c1c(=O)n(Cc1nc(C)c3ccccc3n1)c(=O)n2C | inactive: 1.01 |
| COCC(=O)Nc1ccc2c(c1)OC[C@H](C)N(C(=O)Cc1cccnc1)C[C@@H](C)[C@H](OC)CN(C)C2=O | inactive: 0.932 |
| O=S(=O)(NCC[C@H]1CC[C@@H](NS(=O)(=O)c2cccc(Cl)c2)[C@H](CO)O1)c1cccc(F)c1 | inactive: 1.01 |
| C[C@@H]1CN([C@@H](C)CO)C(=O)c2cc(NC(=O)Cc3ccccc3)ccc2O[C@H]1CN(C)S(=O)(=O)c1cccs1 | inactive: 1 |
| C[C@H]1CN([C@@H](C)CO)C(=O)c2cccc(NC(=O)CCCCCC(=O)Nc3ccccc3N)c2O[C@H]1CN(C)Cc1ccc(C(F)(F)F)cc1 | inactive: 1.03 |
| CO[C@@H]1CN(C)C(=O)c2ccc(NS(=O)(=O)c3ccccc3C)cc2OC[C@@H](C)N(S(C)(=O)=O)C[C@H]1C | inactive: 0.995 |

| Compound | relative growth |
| --- | --- |
| COc1ccc(NC(=O)Nc2ccc3c(c2)C(=O)N([C@H](C)CO)C[C@H](C)[C@@H](CN(C)Cc2ccncc2)OCCCC[C@H](C)O3)cc1 | inactive: 0.981 |
| Cc1ccc(S(=O)(=O)N(C)C[C@H]2OCCCC[C@@H](C)Oc3ccc(NS(=O)(=O)c4ccc(Cl)cc4)cc3C(=O)N([C@@H](C)CO)C[C@@H]2C)cc1 | inactive: 0.999 |
| C[C@H](CO)N1C[C@H](C)[C@@H](CN(C)Cc2ccc(C(=O)O)cc2)Oc2ccc(NS(C)(=O)=O)cc2CC1=O | inactive: 1.02 |
| C[C@H](CO)N1C[C@H](C)[C@@H](CN(C)CC2CC2)Oc2ccc(NS(=O)(=O)c3ccccc3)cc2C1=O | inactive: 0.984 |
| CCN1[C@@H]2c3ccc(-c4cccnc4)c(=O)n3C[C@@H]2[C@@H](CO)[C@@H]1C(=O)NCCc1cn(C)cn1 | inactive: 1 |
| CN(C)C(=O)c1ccc(-c2cccc(-c3nc(C(=O)NCc4ccccc4)cc4c3[C@@H](CCO)N([S@@](=O)C(C)(C)C)C4)c2)cc1 | inactive: 1.05 |
| CC(C)NC(=O)N(C)C[C@@H]1OCc2cnnn2CCCC(=O)N([C@H](C)CO)C[C@@H]1C | inactive: 0.996 |
| COCC(=O)Nc1ccc2c(c1)C(=O)N(C)C[C@H](OC)[C@@H](C)CN(Cc1ccccc1OC)[C@@H](C)CO2 | inactive: 1 |
| Cc1noc(C)c1S(=O)(=O)N(C)C[C@H]1Oc2ccc(NC(=O)NC(C)C)cc2CC(=O)N([C@@H](C)CO)C[C@@H]1C | inactive: 1.02 |
| C[C@@H]1CN([C@H](C)CO)C(=O)c2c(c3ccccc3n2C)-c2ccccc2CO[C@H]1CN(C)C(=O)Nc1ccc2c(c1)OCO2 | inactive: 1.01 |
| C[C@@H]1CN([C@@H](C)CO)C(=O)c2cccc(NC(=O)CCCCCC(=O)Nc3ccccc3N)c2O[C@H]1CN(C)S(C)(=O)=O | inactive: 0.99 |
| COc1ccc(-c2cnc3c(c2)C(=O)N([C@@H](C)CO)C[C@@H](C)[C@@H](CN(C)C(=O)C2CCOCC2)O3)cc1 | inactive: 1.02 |
| O=C(C[C@H]1C=C[C@H](NC(=O)c2cccc(F)c2)[C@@H](CO)O1)NCCN1CCCC1 | inactive: 1.01 |
| CC(C)NC(=O)Nc1cccc2c1O[C@H](CN(C)S(=O)(=O)c1cn(C)cn1)[C@@H](C)CN([C@@H](C)CO)C2=O | inactive: 0.991 |
| COc1cc([C@@H](O)C(=O)O)ccc1O | inactive: 0.972 |
| C[C@H]1CN([C@@H](C)CO)C(=O)c2cccc(NS(=O)(=O)c3ccccc3)c2O[C@@H]1CN(C)Cc1ccc(-c2ccccc2)cc1 | inactive: 1.02 |
| CC=Cc1ccc2n(c1=O)C[C@H]1[C@H](CO)[C@@H](C(=O)NCC)[C@@H]2N1S(=O)(=O)c1cn(C)cn1 | inactive: 0.991 |
| Cc1noc(C)c1NC(=O)Nc1ccc2c(c1)C(=O)N([C@@H](C)CO)C[C@H](C)[C@H](CN(C)C(=O)C1CCCCC1)OCCCC[C@H](C)O2 | inactive: 1.03 |
| C[C@@H]1CN([C@@H](C)CO)S(=O)(=O)c2ccc(C#Cc3ccccc3F)cc2O[C@@H]1CN(C)CC1CC1 | inactive: 0.993 |
| CCOC(=O)[C@@](C)(N)Cc1ccc(O)c(O)c1 | inactive: 1.01 |

| Compound | relative growth |
| --- | --- |
| Cl.c1ccc(C2CN3CCSC3=N2)cc1 (centres undefined) | inactive: 1.03 |
| C[C@H]1CN([C@@H](C)CO)S(=O)(=O)c2ccc(C#Cc3ccc(F)cc3)cc2O[C@@H]1CN(C)S(=O)(=O)c1cn(C)cn1 | inactive: 1.04 |
| CO[C@H]1CN(C)C(=O)c2cc(NC(=O)Nc3cccc(F)c3)ccc2OC[C@@H](C)N(C(=O)Nc2c(C)noc2C)C[C@H]1C | inactive: 0.978 |
| Cc1noc(C)c1S(=O)(=O)Nc1cccc2c1O[C@H](CN(C)C(=O)Nc1ccc3c(c1)OCO3)[C@H](C)CN([C@H](C)CO)C2=O | inactive: 1.01 |
| O=C(C[C@@H]1CC[C@@H]2[C@H](COC[C@H](O)CN2C(=O)c2ccc3c(c2)OCO3)O1)NCCN1CCCCC1 | inactive: 0.991 |
| O=C(C[C@H]1C[C@H]2c3cc(NC(=O)Cc4ccncc4)ccc3O[C@H]2[C@@H](CO)O1)NCCc1ccccc1 | inactive: 1.02 |
| Cc1noc(C)c1NC(=O)Nc1ccc2c(c1)CC(=O)N([C@H](C)CO)C[C@H](C)[C@H](CN(C)C(=O)Nc1ccc(C(F)(F)F)cc1)O2 | inactive: 0.986 |
| CSc1nc(C)cc(NC(N)=O)n1 | inactive: 0.972 |
| C[C@@H]1CN([C@@H](C)CO)C(=O)Cc2cc(NS(=O)(=O)c3cn(C)cn3)ccc2O[C@@H]1CN(C)S(=O)(=O)c1cn(C)cn1 | inactive: 1.05 |
| C[C@@H]1CN([C@H](C)CO)C(=O)c2cc(NC(=O)CCC(F)(F)F)ccc2O[C@@H](C)CCCCO[C@H]1CN(C)Cc1ccc(Cl)c(Cl)c1 | inactive: 0.936 |
| C[C@H]1CCCCO[C@@H](CN(C)C(=O)Nc2ccccc2)[C@@H](C)CN([C@@H](C)CO)C(=O)c2cc(NC(=O)C3CCCCC3)ccc2O1 | inactive: 1.04 |
| COc1cc(-c2coc3cc(O[C@@H]4O[C@H](CO)[C@@H](O)[C@H](O)[C@H]4O)c(OC)c(O)c3c2=O)cc(O)c1OC | inactive: 1.02 |
| CCCNC(=O)[C@@]1(Sc2ccc(C)cc2)CC(=O)N(C2CCCCC2)[C@@H]1c1ccc(CO)cc1I | inactive: 0.968 |
| CC(C)NC(=O)Nc1ccc2c(c1)C(=O)N([C@H](C)CO)C[C@@H](C)[C@@H](CN(C)Cc1ccccc1)OCCCC[C@@H](C)O2 | inactive: 1.04 |
| COc1ccc(S(=O)(=O)N(C)C[C@H]2Oc3ccc(NS(=O)(=O)c4ccccc4)cc3C(=O)N([C@H](C)CO)C[C@H]2C)cc1 | inactive: 1.03 |
| COc1ccc(S(=O)(=O)N(C)C[C@@H]2Oc3ccc(NC(=O)Nc4cccc(C(F)(F)F)c4)cc3CC(=O)N([C@@H](C)CO)C[C@@H]2C)cc1Cl | inactive: 0.997 |
| Cc1noc(C)c1NC(=O)Nc1ccc2c(c1)C(=O)N([C@H](C)CO)C[C@@H](C)[C@@H](CN(C)C(=O)Nc1ccc3c(c1)OCO3)OCCCC[C@@H](C)O2 | inactive: 0.978 |
| COc1ccccc1S(=O)(=O)N[C@H]1CC[C@H](CCNC(=O)C2CC2)O[C@@H]1CO | inactive: 1.01 |
| CC(C)C#Cc1ccc2c(c1)O[C@H](CN(C)C(=O)c1cccc(F)c1)[C@@H](C)CN([C@@H](C)CO)S2(=O)=O | inactive: 0.976 |
